Experimental data reported in the supplement of paper PMC8728848.
The other results are listed elsewhere or left out.

Key:
Assay in all cases: glycan array binding signal (z-score within array); higher = stronger binding
Conditions in all cases: glycan notation: IUPAC condensed, linker removed
[1] = target: Fuc(a1-3)[Gal3S(b1-4)]GlcNAc
Method in brief: (§1)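 The binding signal is a Z-score computed within each array. Data were drawn from 3228 arrays in the Consortium for Functional Glycomics database, restricted to those with a known protein sequence. Scores were averaged over arrays of the same protein sequence at different concentrations or buffers, and over linkers, and negative values can be taken as non-binding.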

[2] = target: Fuc(a1-3)[Gal3S(b1-4)]GlcNAc6S
Method in brief: as §1

[3] = target: Fuc(a1-3)[GalNAc(b1-4)]GlcNAc
Method in brief: as §1

Fuc(a1-4)GlcNAc = target: Fuc(a1-4)GlcNAc
Method in brief: as §1

Fuc(b1-3)GlcNAc = target: Fuc(b1-3)GlcNAc
Method in brief: as §1

Gal(a1-2)Gal = target: Gal(a1-2)Gal
Method in brief: as §1

Gal(a1-3)Gal = target: Gal(a1-3)Gal
Method in brief: as §1

Gal(a1-3)Gal(b1-3)GlcNAc = target: Gal(a1-3)Gal(b1-3)GlcNAc
Method in brief: as §1

[4] = target: Gal(a1-3)Gal(b1-3)GlcNAc(b1-2)Man(a1-3)[Gal(a1-3)Gal(b1-3)GlcNAc(b1-2)Man(a1-6)]Man(b1-4)GlcNAc(b1-4)GlcNAc
Method in brief: as §1

[5] = target: Gal(a1-3)Gal(b1-3)[Fuc(a1-4)]GlcNAc(b1-2)Man(a1-3)[Gal(a1-3)Gal(b1-3)[Fuc(a1-4)]GlcNAc(b1-2)Man(a1-6)]Man(b1-4)GlcNAc(b1-4)GlcNAc
Method in brief: as §1

Gal(a1-3)Gal(b1-4)Glc = target: Gal(a1-3)Gal(b1-4)Glc
Method in brief: as §1

Gal(a1-3)Gal(b1-4)GlcNAc = target: Gal(a1-3)Gal(b1-4)GlcNAc
Method in brief: as §1

[6] = target: Gal(a1-3)Gal(b1-4)GlcNAc(b1-3)GalNAc
Method in brief: as §1

[7] = target: Gal(a1-3)Gal(b1-4)[Fuc(a1-3)]GlcNAc
Method in brief: as §1

[8] = target: Gal(a1-3)Gal(b1-4)[Fuc(a1-3)]GlcNAc(b1-2)Man(a1-3)[Gal(a1-3)Gal(b1-4)[Fuc(a1-3)]GlcNAc(b1-2)Man(a1-6)]Man(b1-4)GlcNAc(b1-4)GlcNAc
Method in brief: as §1

Gal(a1-3)GalNAc = target: Gal(a1-3)GalNAc
Method in brief: as §1

[9] = target: Gal(a1-3)[Gal(a1-4)]Gal(b1-4)GlcNAc
Method in brief: as §1

[10] = target: Gal(a1-4)Gal(b1-3)GlcNAc(b1-2)Man(a1-3)[Gal(a1-4)Gal(b1-3)GlcNAc(b1-2)Man(a1-6)]Man(b1-4)GlcNAc(b1-4)GlcNAc
Method in brief: as §1

Gal(a1-4)Gal(b1-4)Glc = target: Gal(a1-4)Gal(b1-4)Glc
Method in brief: as §1

Gal(a1-4)Gal(b1-4)GlcNAc = target: Gal(a1-4)Gal(b1-4)GlcNAc
Method in brief: as §1

[11] = target: Gal(a1-4)Gal(b1-4)GlcNAc(b1-2)Man(a1-3)[Gal(a1-4)Gal(b1-4)GlcNAc(b1-2)Man(a1-6)]Man(b1-4)GlcNAc(b1-4)GlcNAc
Method in brief: as §1

[12] = target: Gal(a1-4)Gal(b1-4)GlcNAc(b1-3)Gal(b1-4)Glc
Method in brief: as §1

Gal(a1-4)GlcNAc = target: Gal(a1-4)GlcNAc
Method in brief: as §1

Gal(a1-6)Glc = target: Gal(a1-6)Glc
Method in brief: as §1

Gal(b1-2)Gal = target: Gal(b1-2)Gal
Method in brief: as §1

Gal(b1-3)Gal = target: Gal(b1-3)Gal
Method in brief: as §1

Gal(b1-3)Gal(b1-4)GlcNAc = target: Gal(b1-3)Gal(b1-4)GlcNAc
Method in brief: as §1

[13] = target: Gal(b1-3)Gal(b1-4)GlcNAc(b1-2)Man(a1-3)[Gal(b1-3)Gal(b1-4)GlcNAc(b1-2)Man(a1-6)]Man(b1-4)GlcNAc(b1-4)GlcNAc
Method in brief: as §1

Gal(b1-3)GalNAc = target: Gal(b1-3)GalNAc
Method in brief: as §1

[14] = target: Gal(b1-3)GalNAc(a1-3)[Fuc(a1-2)]Gal(b1-4)Glc
Method in brief: as §1

[15] = target: Gal(b1-3)GalNAc(a1-3)[Fuc(a1-2)]Gal(b1-4)GlcNAc
Method in brief: as §1

[16] = target: Gal(b1-3)GalNAc(b1-3)Gal(a1-4)Gal(b1-4)Glc
Method in brief: as §1

[17] = target: Gal(b1-3)GalNAc(b1-4)Gal(b1-4)Glc
Method in brief: as §1

[18] = target: Gal(b1-3)GalNAc(b1-4)[Neu5Ac(a2-3)]Gal(b1-4)Glc
Method in brief: as §1

Gal(b1-3)GlcNAc = target: Gal(b1-3)GlcNAc
Method in brief: as §1

[19] = target: Gal(b1-3)GlcNAc(a1-6)Gal(b1-4)GlcNAc
Method in brief: as §1

[20] = target: Gal(b1-3)GlcNAc(b1-2)Man(a1-3)[Gal(b1-3)GlcNAc(b1-2)Man(a1-6)]Man(b1-4)GlcNAc(b1-4)GlcNAc
Method in brief: as §1

[21] = target: Gal(b1-3)GlcNAc(b1-2)Man(a1-3)[Gal(b1-3)GlcNAc(b1-2)Man(a1-6)]Man(b1-4)GlcNAc(b1-4)[Fuc(a1-6)]GlcNAc
Method in brief: as §1

[22] = target: Gal(b1-3)GlcNAc(b1-3)Gal(b1-3)GlcNAc
Method in brief: as §1

[23] = target: Gal(b1-3)GlcNAc(b1-3)Gal(b1-4)Glc
Method in brief: as §1

[24] = target: Gal(b1-3)GlcNAc(b1-3)Gal(b1-4)GlcNAc
Method in brief: as §1

[25] = target: Gal(b1-3)GlcNAc(b1-3)Gal(b1-4)GlcNAc(b1-6)[Gal(b1-3)GlcNAc(b1-3)]Gal(b1-4)Glc
Method in brief: as §1

[26] = target: Gal(b1-3)GlcNAc(b1-3)Gal(b1-4)[Fuc(a1-3)]GlcNAc(b1-6)[Gal(b1-3)GlcNAc(b1-3)]Gal(b1-4)Glc
Method in brief: as §1

[27] = target: Gal(b1-3)GlcNAc(b1-3)GalNAc
Method in brief: as §1

[28] = target: Gal(b1-3)GlcNAc(b1-6)Gal(b1-4)GlcNAc
Method in brief: as §1

B1: cupB6 (Pseudomonas aeruginosa), Q02SP7 (protein)
chain: MSMRLFPGRVSLRRRPGAQARQALVLGLCCLTGGQAWALNEVALNCSFGNGKGLPWRVVNELTSGTAKGTVLFARPVSLFLSYKPQASQEAHELVLGGNWSGVGYPGPYGTVASDVKGIGYRISVDAQDGVKRVIPVDNQPHALDKRVTSFSGSTTSDYLQELVLTVDPGELPAGDLKVTSVSGSATLNLWAVDRLKGEASIGSVLAVPADNYPTGVCRKPYSLIGPASIAIGGGPPPPPIPKKCKVEVGREINVKLGSVALKNFPRVNDTSTERSFDISLSECAALAKPEIAFRDKYVSAQQADPTILSLKSGGAAGFGIVVKNGLDQQRIRFDGTPYPMRRVGDSADLPLSAAYIRIGAEGELKAGVADGAAEFTFTFP
- glycan array binding signal (z-score) [1]: -0.135
- glycan array binding signal (z-score) [2]: 0.36
- glycan array binding signal (z-score) [3]: 0.033
- glycan array binding signal (z-score) (Fuc(a1-4)GlcNAc): -0.086
- glycan array binding signal (z-score) (Fuc(b1-3)GlcNAc): -0.163
- glycan array binding signal (z-score) (Gal(a1-2)Gal): -0.079
- glycan array binding signal (z-score) (Gal(a1-3)Gal): -0.05
- glycan array binding signal (z-score) (Gal(a1-3)Gal(b1-3)GlcNAc): -0.086
- glycan array binding signal (z-score) [4]: 0.296
- glycan array binding signal (z-score) [5]: 0.113
- glycan array binding signal (z-score) (Gal(a1-3)Gal(b1-4)Glc): -0.1
- glycan array binding signal (z-score) (Gal(a1-3)Gal(b1-4)GlcNAc): -0.158
- glycan array binding signal (z-score) [6]: 0.099
- glycan array binding signal (z-score) [7]: -0.196
- glycan array binding signal (z-score) [8]: 0.01
- glycan array binding signal (z-score) (Gal(a1-3)GalNAc): -0.032
- glycan array binding signal (z-score) [9]: 0.019
- glycan array binding signal (z-score) [10]: -0.05
- glycan array binding signal (z-score) (Gal(a1-4)Gal(b1-4)Glc): -0.036
- glycan array binding signal (z-score) (Gal(a1-4)Gal(b1-4)GlcNAc): -0.192
- glycan array binding signal (z-score) [11]: 0.472
- glycan array binding signal (z-score) [12]: 0.037
- glycan array binding signal (z-score) (Gal(a1-4)GlcNAc): -0.117
- glycan array binding signal (z-score) (Gal(a1-6)Glc): -0.09
- glycan array binding signal (z-score) (Gal(b1-2)Gal): 0.042
- glycan array binding signal (z-score) (Gal(b1-3)Gal): 0.029
- glycan array binding signal (z-score) (Gal(b1-3)Gal(b1-4)GlcNAc): 0.043
- glycan array binding signal (z-score) [13]: -0.05
- glycan array binding signal (z-score) (Gal(b1-3)GalNAc): 0.011
- glycan array binding signal (z-score) [14]: 0.021
- glycan array binding signal (z-score) [15]: 0.038
- glycan array binding signal (z-score) [16]: 0.153
- glycan array binding signal (z-score) [17]: 0
- glycan array binding signal (z-score) [18]: -0.23
- glycan array binding signal (z-score) (Gal(b1-3)GlcNAc): -0.118
- glycan array binding signal (z-score) [19]: -0.051
- glycan array binding signal (z-score) [20]: -0.083
- glycan array binding signal (z-score) [21]: -0.211
- glycan array binding signal (z-score) [22]: -0.192
- glycan array binding signal (z-score) [23]: 0.031
- glycan array binding signal (z-score) [24]: -0.004
- glycan array binding signal (z-score) [25]: 0.05
- glycan array binding signal (z-score) [26]: 0.062
- glycan array binding signal (z-score) [27]: -0.121
- glycan array binding signal (z-score) [28]: 0
